Assay results reported in article PMC9911399, “Two distinct binding modes provide the RNA-binding protein RbFox with extraordinary sequence specificity”.
Numbering of substitutions follows the chain as printed; changes in the protein carry UniProt numbers. The list shows a part of the results.

T1: RBFOX1 RRM RbFoxmut (Fox-RRM*) (Homo sapiens, UniProt Q9NWB1 109-208, R118D;E147R;N151S;E152T)
T1 sequence: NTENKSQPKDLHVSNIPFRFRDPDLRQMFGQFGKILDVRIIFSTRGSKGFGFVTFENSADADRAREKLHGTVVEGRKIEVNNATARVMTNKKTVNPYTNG

B1: ACGGAGA (DNA:RNA)
RNA: GGGAGACCGGAAUUCAGAUUGUCCACGGAGAUUAAAUCCCGUCGUAGCCACCA
DNA 1: CAATCTGAATTCCGGTCTCCC
DNA 2: TGGTGGCTACGACGGGATT
B2: ACUCACG (DNA:RNA)
RNA: B1 RNA with G27U, G28C, G30C, A31G
DNA 1: CAATCTGAATTCCGGTCTCCC
DNA 2: TGGTGGCTACGACGGGATT
B3: AGAAAAC (DNA:RNA)
RNA: B1 RNA with C26G, G27A, G28A, G30A, A31C
DNA 1: CAATCTGAATTCCGGTCTCCC
DNA 2: TGGTGGCTACGACGGGATT
B4: AGCGGCU (DNA:RNA)
RNA: B1 RNA with C26G, G27C, A29G, G30C, A31U
DNA 1: CAATCTGAATTCCGGTCTCCC
DNA 2: TGGTGGCTACGACGGGATT
B5: CCUGCUC (DNA:RNA)
RNA: B1 RNA with A25C, G27U, A29C, G30U, A31C
DNA 1: CAATCTGAATTCCGGTCTCCC
DNA 2: TGGTGGCTACGACGGGATT
B6: CUGUCGU (DNA:RNA)
RNA: B1 RNA with A25C, C26U, G28U, A29C, A31U
DNA 1: CAATCTGAATTCCGGTCTCCC
DNA 2: TGGTGGCTACGACGGGATT
B7: UGUGCAA (DNA:RNA)
RNA: B1 RNA with A25U, C26G, G27U, A29C, G30A
DNA 1: CAATCTGAATTCCGGTCTCCC
DNA 2: TGGTGGCTACGACGGGATT
B8: CACGGCA (DNA:RNA)
RNA: B1 RNA with A25C, C26A, G27C, A29G, G30C
DNA 1: CAATCTGAATTCCGGTCTCCC
DNA 2: TGGTGGCTACGACGGGATT
B9: GUAACCC (DNA:RNA)
RNA: GGGAGACCGGAAUUCAGAUUGUCCGUAACCCUUAAAUCCCGUCGUAGCCACCA
DNA 1: CAATCTGAATTCCGGTCTCCC
DNA 2: TGGTGGCTACGACGGGATT
B10: GGGCGCG (DNA:RNA)
RNA: B9 RNA with U26G, A27G, A28C, C29G, C31G
DNA 1: CAATCTGAATTCCGGTCTCCC
DNA 2: TGGTGGCTACGACGGGATT
B11: UUGCUCC (DNA:RNA)
RNA: B9 RNA with G25U, A27G, A28C, C29U
DNA 1: CAATCTGAATTCCGGTCTCCC
DNA 2: TGGTGGCTACGACGGGATT
B12: UCGUAAG (DNA:RNA)
RNA: B1 RNA with A25U, G28U, G30A, A31G
DNA 1: CAATCTGAATTCCGGTCTCCC
DNA 2: TGGTGGCTACGACGGGATT
B13: UUUUUGU (DNA:RNA)
RNA: B1 RNA with A25U, C26U, G27U, G28U, A29U, A31U
DNA 1: CAATCTGAATTCCGGTCTCCC
DNA 2: TGGTGGCTACGACGGGATT
B14: CUGACAU (DNA:RNA)
RNA: B9 RNA with G25C, A27G, C30A, C31U
DNA 1: CAATCTGAATTCCGGTCTCCC
DNA 2: TGGTGGCTACGACGGGATT
B15: AAAUACA (DNA:RNA)
RNA: B1 RNA with C26A, G27A, G28U, G30C
DNA 1: CAATCTGAATTCCGGTCTCCC
DNA 2: TGGTGGCTACGACGGGATT
B16: GAUCUGA (DNA:RNA)
RNA: B1 RNA with A25G, C26A, G27U, G28C, A29U
DNA 1: CAATCTGAATTCCGGTCTCCC
DNA 2: TGGTGGCTACGACGGGATT
B17: GUUGGCA (DNA:RNA)
RNA: B9 RNA with A27U, A28G, C29G, C31A
DNA 1: CAATCTGAATTCCGGTCTCCC
DNA 2: TGGTGGCTACGACGGGATT
B18: AUUACAC (DNA:RNA)
RNA: B9 RNA with G25A, A27U, C30A
DNA 1: CAATCTGAATTCCGGTCTCCC
DNA 2: TGGTGGCTACGACGGGATT
B19: CCGUUCC (DNA:RNA)
RNA: B1 RNA with A25C, G28U, A29U, G30C, A31C
DNA 1: CAATCTGAATTCCGGTCTCCC
DNA 2: TGGTGGCTACGACGGGATT
B20: GAGGGCA (DNA:RNA)
RNA: B1 RNA with A25G, C26A, A29G, G30C
DNA 1: CAATCTGAATTCCGGTCTCCC
DNA 2: TGGTGGCTACGACGGGATT

target: T1, RBFOX1 RRM RbFoxmut (Fox-RRM*); assay: EMSA; HiTS-Eq, 1 nM pool, 10 min; buffer printed only for the single-RNA assays: 10 mM Tris pH 7.5, 150 mM NaCl, 3.4 mM EDTA, 0.001% NP-40, 30 C; conditions: tags: His6 N-terminal (pET28a); label: 5' 32P
In short: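 Purified RbFox RRM, wild type or mutant, was incubated for 10 min in 50 µL with 1 nM of a 5′-radiolabelled RNA pool carrying 7 randomized nucleotides, whose flanks were annealed to DNA oligonucleotides, over a series of increasing protein concentrations. Unbound RNA was resolved on 8% native PAGE, cut out, reverse-transcribed, barcoded by PCR and sequenced on an Illumina HiSeq 2500. Relative association constants were derived from changes in read counts for each RNA species versus the control reaction and normalised to the cognate motif.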

Binder	binding signal
B1	0.0992 KA relative to UGCAUGU
B2	0.121 KA relative to UGCAUGU
B3	0.0897 KA relative to UGCAUGU
B4	0.1 KA relative to UGCAUGU
B5	0.0784 KA relative to UGCAUGU
B6	0.138 KA relative to UGCAUGU
B7	0.0708 KA relative to UGCAUGU
B8	0.111 KA relative to UGCAUGU
B9	0.063 KA relative to UGCAUGU
B10	0.186 KA relative to UGCAUGU
B11	0.0613 KA relative to UGCAUGU
B12	0.129 KA relative to UGCAUGU
B13	0.12 KA relative to UGCAUGU
B14	0.078 KA relative to UGCAUGU
B15	0.1 KA relative to UGCAUGU
B16	0.0464 KA relative to UGCAUGU
B17	0.157 KA relative to UGCAUGU
B18	0.0952 KA relative to UGCAUGU
B19	0.0525 KA relative to UGCAUGU
B20	0.0718 KA relative to UGCAUGU
